# The supplement of paper PMC5499739
# The full ranking holds about 16,000 sequences; the median of “Z-score” is about -0.37, and the highest 2% start at about 3.2. Some of the results follow.
# Tested on: RBM10 RRM1-ZnF (GST-tagged construct)
# Experiment: RNAcompete 7-mer binding Z-score; higher = stronger binding preference
# Outline: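 A designed pool of 241 399 RNAs, each up to 41 nt and transcribed from microarray-derived DNA templates, was used at 1.5 nmol with 20 pmol of GST-tagged RBM10 constructs. The mixture, in 1 ml Hepes pH 7.8 buffer with KCl, NaCl, glycerol, DTT, BSA and glutathione Sepharose beads, was held 30 min at 4°C and then washed four times for 2 min at 4°C. Bound RNA was read out by microarray hybridisation, and enrichment of each heptamer motif was scored as a one-sided Z-score over the probes carrying it.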
row,Sequence,RNAcompete 7-mer binding Z-score
1,GUUUGUC,-0.168
2,CCCCGAG,-0.0155
3,GACUGUU,-0.678
4,GUUGAGC,0.706
5,CACGGUG,0.397
6,GUCAUCC,-0.672
7,UUGGUAG,1.74
8,CGGCCCC,-0.441
9,CGCAUGG,0.543
10,GAUUUGA,-0.0155
11,GAUCGAG,0.41
12,GGUAGGU,3.31
13,ACUUGAU,-0.529
14,AAACGCG,-0.197
15,CAUAACA,-0.444
16,CCGGAUC,-0.405
17,GUCGUGU,-0.0382
18,CAUUGAU,-0.464
19,CGUCCAU,-0.639
20,AGGCAAC,-0.0479
21,ACCACUA,-0.646
22,AACAAGA,0.0918
23,CCCUGGU,-0.337

row,Sequence,RNAcompete 7-mer binding Z-score
1,CAGCUAC,-0.509
2,UGAGCUA,-0.00896
3,CGAGAGG,1.25
4,UAAUCAG,-0.207
5,GUAUACU,-0.519
6,CACGCGA,-0.373
7,GCAACUU,-0.483
8,GGUCUCG,0.163
9,UGGAUAA,1.15
10,GCGGGGA,3.67
11,GCACGUC,-0.379
12,ACAAGCG,0.137
13,CCAUUUG,-1
14,CCGGGCA,-0.0707
15,AUGACCA,-0.402
16,UGGUUCG,0.231
17,AAUCACA,-0.496
18,AUUGAGA,0.0625
19,CACAGUG,-0.00571
20,UAGCUGU,-0.578
21,UGCUCCU,-0.73
22,GUGUUUG,0.774
23,CUGAGAU,-0.36

row,Sequence,RNAcompete 7-mer binding Z-score
1,CGCCUCA,-0.662
2,AACUUGG,0.124
3,GCAACUA,-0.376
4,ACGUUUC,-0.837
5,CUUACAG,-0.6
6,CGCGUCA,-0.298
7,UUACAGG,0.491
8,AGCCAAG,-0.298
9,UCUUGAC,-0.873
10,UGAACCC,-0.448
11,AUUCUGU,-0.766
12,GCAAUCU,-0.613
13,UUACAUG,-0.405
14,UACAAGG,1.06
15,UCGUGCU,-0.607
16,CACGGAC,0.183
17,CAGCCUU,-0.808
18,CGUCGCC,-0.659
19,AUACCCU,-0.763
20,AAUCAGU,-0.305
21,CGUUGCA,-0.652
22,AAUUUGG,0.621
23,AUAGAGU,0.322

row,Sequence,RNAcompete 7-mer binding Z-score
1,AUAGGAU,1.58
2,ACCGGAA,-0.00571
3,AGUUUUC,-0.675
4,UUCCGCU,-0.646
5,ACCUGCA,-0.74
6,UCUACCG,-0.727
7,GAACCAU,-0.629
8,UGUACCA,-0.552
9,UGGACAA,0.667
10,GACACUU,-0.782
11,GUCAAAG,-0.00571
12,AUGGAUA,2.89
13,CUGACUC,-0.655
14,GGGGGAA,3.15
15,AUGUUCU,-0.834
16,UUUUCAA,-0.821
17,ACGGCGG,1.02
18,CACUGUC,-0.655
19,ACUGCCC,-0.467
20,GGUGUAC,1.48
21,UGUUCCA,-0.668
22,GAAAAGG,4.26
